Results: publication PMC2916856
These are yes or no findings as the source states them, for the method shown. For some assays here: Binding seen in cells or lysates may run through a third protein. Some entries that bind do so weakly or less than the wild type. For some assays here: Sequences can lack the tags named with a protein.

T1: Dpb11 bait (pEG202-DPB11) (S. cerevisiae) (UniProt P47027)
T1 sequence: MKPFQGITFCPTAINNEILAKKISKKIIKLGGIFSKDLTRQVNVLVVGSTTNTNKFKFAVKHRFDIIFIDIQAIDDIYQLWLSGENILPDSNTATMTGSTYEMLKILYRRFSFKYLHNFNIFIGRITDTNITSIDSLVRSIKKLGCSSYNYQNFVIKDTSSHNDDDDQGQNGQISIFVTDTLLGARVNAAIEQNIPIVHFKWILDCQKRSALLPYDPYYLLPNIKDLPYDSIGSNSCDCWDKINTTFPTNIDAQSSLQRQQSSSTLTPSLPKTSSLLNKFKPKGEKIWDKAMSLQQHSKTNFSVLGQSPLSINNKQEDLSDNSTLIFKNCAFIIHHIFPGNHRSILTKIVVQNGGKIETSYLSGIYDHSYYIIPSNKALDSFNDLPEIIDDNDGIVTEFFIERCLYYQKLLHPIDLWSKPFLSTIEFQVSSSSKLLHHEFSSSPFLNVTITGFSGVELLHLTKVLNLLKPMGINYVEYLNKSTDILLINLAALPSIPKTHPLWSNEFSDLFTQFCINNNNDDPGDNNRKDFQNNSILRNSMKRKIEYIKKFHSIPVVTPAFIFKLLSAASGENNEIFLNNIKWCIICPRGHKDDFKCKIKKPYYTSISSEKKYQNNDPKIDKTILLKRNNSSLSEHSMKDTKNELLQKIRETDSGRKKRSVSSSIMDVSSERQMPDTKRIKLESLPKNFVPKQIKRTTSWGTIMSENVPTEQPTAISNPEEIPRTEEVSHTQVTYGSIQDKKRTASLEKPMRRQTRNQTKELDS

T2: Dpb11-MYC (S. cerevisiae) (UniProt P47027)
T2 sequence: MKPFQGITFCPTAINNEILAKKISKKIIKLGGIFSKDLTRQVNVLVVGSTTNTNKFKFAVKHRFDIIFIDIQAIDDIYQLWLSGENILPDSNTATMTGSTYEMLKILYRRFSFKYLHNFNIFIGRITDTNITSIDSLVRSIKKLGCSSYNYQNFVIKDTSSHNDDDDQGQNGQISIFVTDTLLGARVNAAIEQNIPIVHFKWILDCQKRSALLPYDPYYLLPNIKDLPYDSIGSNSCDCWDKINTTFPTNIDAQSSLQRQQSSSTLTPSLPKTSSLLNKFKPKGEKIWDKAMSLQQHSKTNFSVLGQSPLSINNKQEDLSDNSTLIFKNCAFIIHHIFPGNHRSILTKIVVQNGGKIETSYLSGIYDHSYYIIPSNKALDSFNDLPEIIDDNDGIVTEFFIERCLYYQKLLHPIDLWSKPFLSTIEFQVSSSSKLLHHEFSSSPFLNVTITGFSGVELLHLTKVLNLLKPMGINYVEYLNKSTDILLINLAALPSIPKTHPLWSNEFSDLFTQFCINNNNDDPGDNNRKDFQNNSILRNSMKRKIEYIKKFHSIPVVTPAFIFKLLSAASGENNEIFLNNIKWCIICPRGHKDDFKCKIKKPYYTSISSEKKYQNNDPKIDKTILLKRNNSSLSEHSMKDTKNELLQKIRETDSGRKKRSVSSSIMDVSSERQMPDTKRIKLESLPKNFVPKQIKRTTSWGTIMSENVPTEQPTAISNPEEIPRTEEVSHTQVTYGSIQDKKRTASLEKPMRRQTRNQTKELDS


Tests used:
[1] = target: T1, Dpb11 bait (pEG202-DPB11) (S. cerevisiae); assay: two-hybrid; B42/lexA system, lacZ reporter, β-galactosidase (ONPG) on extracts; cells arrested in M (nocodazole) or G1 (α-factor), galactose induction 1 h; strain EGY42, also wt (K699) and cdc28-as1 (JAU01) backgrounds, the latter with or without 5 µM 1NMPP1
[2] = target: T2, Dpb11-MYC (S. cerevisiae); assay: co-IP; anti-MYC (9E11) immunoprecipitation of Dpb11-MYC from whole cell extract of nocodazole-arrested cells treated with 150 µg/ml zeocin for 30 min; Rad9 detected by Western blot; 4°C
[3] = target: T2, Dpb11-MYC (S. cerevisiae); assay: co-IP; anti-MYC (9E11) immunoprecipitation of Dpb11-MYC from whole cell extract of nocodazole-arrested, mock treated cells (no zeocin); Rad9 detected by Western blot; 4°C

Binder | binding [1] | binding [2] | binding [3]
Rad9 prey (pJG4-5-RAD9) (protein, UniProt P14737 1-1309) MSGQLVQWKSSPDRVTQSAIKEALHSPLADGDMNEMNVPVDPLENKVNSTNIIEGSPKANPNPVKFMNTSEIFQKSLGLLDESPRHDDELNIEVGDNDRPNANILHNERTPDLDRIANFFKSNRTPGKENLLTKYQSSDLEDTPLMLRKKMTFQTPTDPLEQKTFKKLKSDTGFCYYGEQNDGEENASLEVTEADATFVQMAERSADNYDCALEGIVTPKRYKDELSKSGGMQDERVQKTQIMISAESPNSISSYDKNKITGNGRTTRNVNKVFNNNEDNIGAIEEKNPVKKKSENYSSDDLRERNNQIIQSNESEEINELEKNLNVSGRENDVNNLDIDINSAVSGTPSRNNAEEEMYSSESVNNREPSKKWIFRYSKDKTENNSNRSTQIVNNPRTQEMPLDSISIDTQPLSKSFNTETNNELETQIIVSSLSQGISAQKGPVFHSTGQTEEIKTQIINSPEQNALNATFETPVTLSRINFEPILEVPETSSPSKNTMSKPSNSSPIPKEKDTFNIHEREVETNNVFSNDIQNSSNAATRDDIIIAGSSDFNEQKEITDRIYLQLSGKQISDSGSDETERMSPNELDTKKESTIMSEVELTQELPEVEEQQDLQTSPKKLVVEEETLMEIKKSKGNSLQLHDDNKECNSDKQDGTESLDVALIEHESKGQSSELQKNLMQLFPSESQEIIQNRRTIKRRQKDTIEIGEEEENRSTKTSPTKHLKRNSDLDAASIKREPSCSITIQTGETGSGKDSKEQSYVFPEGIRTADNSFLSKDDIIFGNAVWCQYTWNYKFYPGILLEVDTNQDGCWIYFETGRSLTKDEDIYYLDIRIGDAVTFDGNEYVVVGLECRSHDLNIIRCIRGYDTVHLKKKNASGLLGKRTLIKALSSISLDLSEWAKRAKIILEDNEKNKGDAYRYLRHPIRGRKSMTNVLSPKKHTDDEKDINTHTEVYNNEIESSSEKKEIVKKDSRDALAEHAGAPSLLFSSGEIRTGNVFDKCIFVLTSLFENREELRQTIESQGGTVIESGFSTLFNFTHPLAKSLVNKGNTDNIRELALKLAWKPHSLFADCRFACLITKRHLRSLKYLETLALGWPTLHWKFISACIEKKRIVPHLIYQYLLPSGESFRLSLDSPSKGGIIKSNNIFSFYTQFLRGSNLRDQICGVKKMLNDYIVIVWGRSELDSFVKFAFACLSAGRMLTIDLPNIDVDDTEPLLNALDSLVPRIGSELSNRKLKFLIYANENNGKSQMKLLERLRSQISLKFKKFNYIFHTESKEWLIQTIINEDTGFHDDITDNDIYNTISEVR | binds | – | –
Rad9-S11A mutant protein (protein, UniProt P14737 1-1309) MSGQLVQWKSAPDRVTQSAIKEALHSPLADGDMNEMNVPVDPLENKVNSTNIIEGSPKANPNPVKFMNTSEIFQKSLGLLDESPRHDDELNIEVGDNDRPNANILHNERTPDLDRIANFFKSNRTPGKENLLTKYQSSDLEDTPLMLRKKMTFQTPTDPLEQKTFKKLKSDTGFCYYGEQNDGEENASLEVTEADATFVQMAERSADNYDCALEGIVTPKRYKDELSKSGGMQDERVQKTQIMISAESPNSISSYDKNKITGNGRTTRNVNKVFNNNEDNIGAIEEKNPVKKKSENYSSDDLRERNNQIIQSNESEEINELEKNLNVSGRENDVNNLDIDINSAVSGTPSRNNAEEEMYSSESVNNREPSKKWIFRYSKDKTENNSNRSTQIVNNPRTQEMPLDSISIDTQPLSKSFNTETNNELETQIIVSSLSQGISAQKGPVFHSTGQTEEIKTQIINSPEQNALNATFETPVTLSRINFEPILEVPETSSPSKNTMSKPSNSSPIPKEKDTFNIHEREVETNNVFSNDIQNSSNAATRDDIIIAGSSDFNEQKEITDRIYLQLSGKQISDSGSDETERMSPNELDTKKESTIMSEVELTQELPEVEEQQDLQTSPKKLVVEEETLMEIKKSKGNSLQLHDDNKECNSDKQDGTESLDVALIEHESKGQSSELQKNLMQLFPSESQEIIQNRRTIKRRQKDTIEIGEEEENRSTKTSPTKHLKRNSDLDAASIKREPSCSITIQTGETGSGKDSKEQSYVFPEGIRTADNSFLSKDDIIFGNAVWCQYTWNYKFYPGILLEVDTNQDGCWIYFETGRSLTKDEDIYYLDIRIGDAVTFDGNEYVVVGLECRSHDLNIIRCIRGYDTVHLKKKNASGLLGKRTLIKALSSISLDLSEWAKRAKIILEDNEKNKGDAYRYLRHPIRGRKSMTNVLSPKKHTDDEKDINTHTEVYNNEIESSSEKKEIVKKDSRDALAEHAGAPSLLFSSGEIRTGNVFDKCIFVLTSLFENREELRQTIESQGGTVIESGFSTLFNFTHPLAKSLVNKGNTDNIRELALKLAWKPHSLFADCRFACLITKRHLRSLKYLETLALGWPTLHWKFISACIEKKRIVPHLIYQYLLPSGESFRLSLDSPSKGGIIKSNNIFSFYTQFLRGSNLRDQICGVKKMLNDYIVIVWGRSELDSFVKFAFACLSAGRMLTIDLPNIDVDDTEPLLNALDSLVPRIGSELSNRKLKFLIYANENNGKSQMKLLERLRSQISLKFKKFNYIFHTESKEWLIQTIINEDTGFHDDITDNDIYNTISEVR | – | no binding | –

Further lines, with some results ahead:

binding [1] | binding [2] | Binder | binding [3]
binds | – | Rad9ΔNT prey (pMAG9) (domain or fragment, UniProt P14737 232-1309) MQDERVQKTQIMISAESPNSISSYDKNKITGNGRTTRNVNKVFNNNEDNIGAIEEKNPVKKKSENYSSDDLRERNNQIIQSNESEEINELEKNLNVSGRENDVNNLDIDINSAVSGTPSRNNAEEEMYSSESVNNREPSKKWIFRYSKDKTENNSNRSTQIVNNPRTQEMPLDSISIDTQPLSKSFNTETNNELETQIIVSSLSQGISAQKGPVFHSTGQTEEIKTQIINSPEQNALNATFETPVTLSRINFEPILEVPETSSPSKNTMSKPSNSSPIPKEKDTFNIHEREVETNNVFSNDIQNSSNAATRDDIIIAGSSDFNEQKEITDRIYLQLSGKQISDSGSDETERMSPNELDTKKESTIMSEVELTQELPEVEEQQDLQTSPKKLVVEEETLMEIKKSKGNSLQLHDDNKECNSDKQDGTESLDVALIEHESKGQSSELQKNLMQLFPSESQEIIQNRRTIKRRQKDTIEIGEEEENRSTKTSPTKHLKRNSDLDAASIKREPSCSITIQTGETGSGKDSKEQSYVFPEGIRTADNSFLSKDDIIFGNAVWCQYTWNYKFYPGILLEVDTNQDGCWIYFETGRSLTKDEDIYYLDIRIGDAVTFDGNEYVVVGLECRSHDLNIIRCIRGYDTVHLKKKNASGLLGKRTLIKALSSISLDLSEWAKRAKIILEDNEKNKGDAYRYLRHPIRGRKSMTNVLSPKKHTDDEKDINTHTEVYNNEIESSSEKKEIVKKDSRDALAEHAGAPSLLFSSGEIRTGNVFDKCIFVLTSLFENREELRQTIESQGGTVIESGFSTLFNFTHPLAKSLVNKGNTDNIRELALKLAWKPHSLFADCRFACLITKRHLRSLKYLETLALGWPTLHWKFISACIEKKRIVPHLIYQYLLPSGESFRLSLDSPSKGGIIKSNNIFSFYTQFLRGSNLRDQICGVKKMLNDYIVIVWGRSELDSFVKFAFACLSAGRMLTIDLPNIDVDDTEPLLNALDSLVPRIGSELSNRKLKFLIYANENNGKSQMKLLERLRSQISLKFKKFNYIFHTESKEWLIQTIINEDTGFHDDITDNDIYNTISEVR | –
– | binds | Rad9 (endogenous) (protein, UniProt P14737 1-1309) MSGQLVQWKSSPDRVTQSAIKEALHSPLADGDMNEMNVPVDPLENKVNSTNIIEGSPKANPNPVKFMNTSEIFQKSLGLLDESPRHDDELNIEVGDNDRPNANILHNERTPDLDRIANFFKSNRTPGKENLLTKYQSSDLEDTPLMLRKKMTFQTPTDPLEQKTFKKLKSDTGFCYYGEQNDGEENASLEVTEADATFVQMAERSADNYDCALEGIVTPKRYKDELSKSGGMQDERVQKTQIMISAESPNSISSYDKNKITGNGRTTRNVNKVFNNNEDNIGAIEEKNPVKKKSENYSSDDLRERNNQIIQSNESEEINELEKNLNVSGRENDVNNLDIDINSAVSGTPSRNNAEEEMYSSESVNNREPSKKWIFRYSKDKTENNSNRSTQIVNNPRTQEMPLDSISIDTQPLSKSFNTETNNELETQIIVSSLSQGISAQKGPVFHSTGQTEEIKTQIINSPEQNALNATFETPVTLSRINFEPILEVPETSSPSKNTMSKPSNSSPIPKEKDTFNIHEREVETNNVFSNDIQNSSNAATRDDIIIAGSSDFNEQKEITDRIYLQLSGKQISDSGSDETERMSPNELDTKKESTIMSEVELTQELPEVEEQQDLQTSPKKLVVEEETLMEIKKSKGNSLQLHDDNKECNSDKQDGTESLDVALIEHESKGQSSELQKNLMQLFPSESQEIIQNRRTIKRRQKDTIEIGEEEENRSTKTSPTKHLKRNSDLDAASIKREPSCSITIQTGETGSGKDSKEQSYVFPEGIRTADNSFLSKDDIIFGNAVWCQYTWNYKFYPGILLEVDTNQDGCWIYFETGRSLTKDEDIYYLDIRIGDAVTFDGNEYVVVGLECRSHDLNIIRCIRGYDTVHLKKKNASGLLGKRTLIKALSSISLDLSEWAKRAKIILEDNEKNKGDAYRYLRHPIRGRKSMTNVLSPKKHTDDEKDINTHTEVYNNEIESSSEKKEIVKKDSRDALAEHAGAPSLLFSSGEIRTGNVFDKCIFVLTSLFENREELRQTIESQGGTVIESGFSTLFNFTHPLAKSLVNKGNTDNIRELALKLAWKPHSLFADCRFACLITKRHLRSLKYLETLALGWPTLHWKFISACIEKKRIVPHLIYQYLLPSGESFRLSLDSPSKGGIIKSNNIFSFYTQFLRGSNLRDQICGVKKMLNDYIVIVWGRSELDSFVKFAFACLSAGRMLTIDLPNIDVDDTEPLLNALDSLVPRIGSELSNRKLKFLIYANENNGKSQMKLLERLRSQISLKFKKFNYIFHTESKEWLIQTIINEDTGFHDDITDNDIYNTISEVR | no binding (condition: mock treated cells (no zeocin))
